# Experimental data from the supplement of paper PMC4166925.
# ± gives the standard deviation of the averaged measurements. Whole data set: some 33,000 sequences, median “E-score (dimensionless, -0.5 to 0.5)” near -0.049, cut for the highest 2% near 0.37. The list shows a part of the results.
# System: T1, PmTbr T-box DNA-binding domain (GST fusion)
# T1 sequence: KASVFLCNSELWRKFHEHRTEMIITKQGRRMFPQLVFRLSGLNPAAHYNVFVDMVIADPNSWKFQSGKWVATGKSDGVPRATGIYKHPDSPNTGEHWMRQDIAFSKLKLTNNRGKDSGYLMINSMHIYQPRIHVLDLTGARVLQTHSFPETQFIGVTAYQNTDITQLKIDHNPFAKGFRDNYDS
# Assay: PBM E-score of 8-mer (E-score (dimensionless, -0.5 to 0.5)); Tbr is Tbrain of the sea star Patiria miniata (Pm) or the sea urchin Strongylocentrotus purpuratus (Sp); higher = stronger binding preference; most listed sequences are background and not binding sites
# Conditions: the construct has about 5 more residues each side
# In short: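 Primer extension turned Universal Agilent oligonucleotide arrays double-stranded. They were incubated with 200 nM protein in PBS (pH 7.5); the protein was a GST-fused Tbr T-box DNA-binding domain expressed in BL21 E. coli at 20 °C and purified on glutathione. Every ungapped 8-mer was scored from the scanned, quantified probe intensities, and the Universal PBM Analysis Suite gave each an enrichment E-score averaged over duplicate arrays.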
row,Sequence,PBM E-score of 8-mer
1,GGTTCTAC,-0.0593 ± 0.028
2,CTCTATCC,-0.168 ± 0.016
3,GCTCAAAA,0.0264 ± 0.084
4,AATTCAAG,-0.162 ± 0.095
5,ACTTGGGA,0.0708 ± 0.014
6,TTATTAAA,-0.06699 ± 0.00049
7,CTCATGCA,-0.151 ± 0.035
8,GGCATGCC,-0.311 ± 0.028
9,AGATTCGA,0.0401 ± 0.019
10,AAAGACCT,-0.102 ± 0.054
11,GATTGATA,-0.0767 ± 0.054
12,ATTTTCTC,0.108 ± 0.096
13,AGTAGCCA,-0.209 ± 0.07
14,CATGCTGC,-0.229 ± 0.023
15,CTGATAGA,-0.188 ± 0.012
16,CCCTTATA,-0.247 ± 0.0066
17,AAGGAAAG,-0.0595 ± 0.01
18,CTCAAGTC,-0.0501 ± 0.022
19,AACGGGGC,-0.0558 ± 0.11
20,AATATGGT,-0.157 ± 0.052
21,ATAGGACC,-0.184 ± 0.015
22,AAACGCCA,0.08653 ± 0.00074

row,Sequence,PBM E-score of 8-mer
1,CTTGTGAA,0.329 ± 0.012
2,AACGTCAA,-0.0341 ± 0.049
3,CGTAGTCC,-0.208 ± 0.01
4,AAGGTGCA,0.4 ± 0.011
5,CCTACGAC,-0.204 ± 0.0051
6,CGCTGAGC,0.0459 ± 0.011
7,TCGTAAAA,-0.0417 ± 0.095
8,CCAACCAA,-0.2261 ± 0.0014
9,ACACGGCC,0.0316 ± 0.032
10,CAGCCCTC,-0.124 ± 0.063
11,AGGCGGTG,0.046 ± 0.021
12,ACTAGCCG,0.0604 ± 0.025
13,CCTCTGCA,-0.044 ± 0.055
14,CTATGGCA,0.1719 ± 0.00059
15,TCATGCCA,0.129 ± 0.0089
16,CTCTCCAA,-0.101 ± 0.046
17,CCGTTGAG,-0.186 ± 0.02
18,ATGGCACA,0.103 ± 0.0048
19,TCTTTTAA,0.0798 ± 0.059
20,CCGCGGGA,-0.189 ± 0.065
21,ACCGTAAG,0.0296 ± 0.0033
22,ACTAACTA,0.125 ± 0.03

row,Sequence,PBM E-score of 8-mer
1,CCGGAGGA,-0.2 ± 0.036
2,ATGGGCTA,-0.147 ± 0.005
3,AAGTCTCG,0.185 ± 0.0019
4,CAAAAGTA,-0.123 ± 0.056
5,GGTTTTTA,-0.202 ± 0.0096
6,AGTTGGGC,-0.0671 ± 0.067
7,GACCGAAA,-0.0308 ± 0.027
8,ATAGCTAC,-0.194 ± 0.076
9,ACAATAAA,-0.174 ± 0.095
10,CCCGTTAA,0.196 ± 0.0089
11,GCTCGAGA,-0.0327 ± 0.038
12,ACGACGCT,0.088 ± 0.029
13,AACATTGG,0.0336 ± 0.043
14,AGACATCA,-0.124 ± 0.015
15,CAGGGTTA,-0.0478 ± 0.038
16,ACTGTCAC,0.392 ± 0.018
17,CGACGTCC,-0.17 ± 0.024
18,GTTGTACA,0.0957 ± 0.022
19,GGCCATGA,-0.214 ± 0.055
20,GCTTATGA,-0.18 ± 0.0093
21,GCCGTTGA,-0.0383 ± 0.037
22,CGGGGTCC,-0.268 ± 0.016

row,Sequence,PBM E-score of 8-mer
1,GCTCGATA,-0.0648 ± 0.038
2,AGATCTCA,0.1 ± 0.044
3,GAGAACGA,0.06861 ± 0.00056
4,AAGGGTCG,-0.261 ± 0.018
5,AGGCATTA,0.00833 ± 0.012
6,CATCGACG,0.0899 ± 0.077
7,GGCTGTAA,-0.00799 ± 0.063
8,GTAGTGAC,0.216 ± 0.032
9,CGCATCCA,-0.133 ± 0.051
10,TCTCTGCA,-0.0957 ± 0.045
11,AAGTTGTA,-0.0651 ± 0.0049
12,CCACATCG,0.0335 ± 0.06
13,CGGGGATA,-0.166 ± 0.042
14,ACGCCACC,0.261 ± 0.053
15,ATAATTTG,-0.197 ± 0.017
16,AAACAACA,0.096 ± 0.031
17,CGATTATC,0.0589 ± 0.052
18,TCTGAAGA,-0.207 ± 0.019
19,CCTCGACA,0.214 ± 0.032
20,CTGTCAGA,0.211 ± 0.014
